Measurements taken from PubChem BioAssay AID720542 (National Center for Advancing Translational Sciences (NCATS), 2013).
Hit rate of the full screen: of about 360,000 compounds, about 740 (0.21%) were called active. This list was built around the results that the source calls inconclusive (neither active nor inactive); the mix of calls is not that of the screen. Calls come from the whole dose curve; as a rule, active = well fitted inhibition curve with a large enough effect; inconclusive = small, poorly fitted or top-dose-only effect; inactive = no such curve, though single readings can be large or run the other way. Potencies of inconclusive entries are left out as doubtful fits.

The compounds below were run on Plasmodium falciparum AMA1 (3D7) - RON2 peptide interaction (assay: qHTS for Inhibitors of AMA1-RON; Towards Development of Antimalarial Drug Lead: Primary Screen). Conditions: AlphaScreen AMA1-biotinylated RON2 peptide binding; activity change, negative = inhibition: at 58.2 µM (top of the series).
Procedure, shortened: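 AMA1 (3D7) with his tag at 25 nM final met compounds first, then biotinylated RON2 peptide at 25 nM; detection used donor plus acceptor beads, 10 µg/mL apiece, read by AlphaScreen after 30 min at room temperature.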
Note: nearly all actives have a fitted effect of over 45% in size.
Potency is the fitted concentration of half-maximal effect; tags give direction and shape of the fitted curve.
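Throughout, for activity change, negative = inhibition: 0% = vehicle wells and -100% = peptide control.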

Compound | Potency | activity change, negative = inhibition
Cc1ccc(-c2cc(C(=O)OCC(=O)N(C)c3c(N)n(Cc4ccccc4)c(=O)[nH]c3=O)c3ccccc3n2)o1 | inactive | –
CCOC(=O)C1=C(c2ccccc2)N=c2s/c(=C\c3ccc(O)cc3)c(=O)n2C1c1cccs1 (centres undefined) | – | inconclusive: -11.7% [inhibitor]
Cc1cccc(CN2CCN(Cc3ccc(Cl)cc3)CC2)c1 | inconclusive [inhibitor, single point] | –
c1ccc(OCCN2CCOCC2)cc1 | active: 14.1 µM | –
COC(=O)c1sccc1NC(=O)Nc1cccc(F)c1 | inconclusive [inhibitor, single point] | –
CC(=O)N1c2ccc(C)cc2Sc2c1ccc1ccccc21 | inconclusive [inhibitor, single point] | –
COc1cc(CNc2ccc(N3CCCCC3)cc2)ccc1OCC(=O)NC(C)(C)C | inconclusive [inhibitor, partial curve] | –
O=C1c2ccccc2C(Nc2ccc3c(c2)OCCO3)N1Cc1ccco1 (centres undefined) | inconclusive [inhibitor, single point] | –
Cc1cc(C(=O)Nc2ccc(N3CCCC3)c(Cl)c2)ccc1[N+](=O)[O-] | active: 22.4 µM | –
COc1cccc(C(=O)/C=C2\NCCc3cc(OC)c(OC)cc32)c1 | inconclusive [inhibitor, single point] | –
N#Cc1nc(COc2ccc(Br)cc2)oc1N1CCCC1 | inconclusive [inhibitor, partial curve] | –
COc1cccc(-n2c(Cc3cc(=O)[nH]c(=O)[nH]3)nnc2SCC(=O)N2CCCCC2)c1 | inactive | –
CCOC(=O)/C(C#N)=C/c1ccc(-c2ccsc2C(=O)OC)o1 | inconclusive [inhibitor, partial curve] | –
CCOC(=O)N1CCN(c2cc(NCCC(=O)O)c3c4c(onc24)-c2ccccc2C3=O)CC1 | inconclusive [inhibitor, partial curve] | –
C=CCn1c(=N)n(CC(=O)c2cccc([N+](=O)[O-])c2)c2ccccc21 | inactive | –
CC1CCN(c2oc(-c3ccc(F)cc3)nc2C#N)CC1 | inconclusive [inhibitor, partial curve] | –
COc1ccc(-n2nc([N+](=O)[O-])c(=NCCc3ccc(C)cc3)n2O)cc1 | inconclusive [inhibitor, partial curve] | –
COc1ccc(/C=N/Nc2cc(N3CCCC3)nc(N3CCCC3)n2)cc1 | inconclusive [inhibitor, full curve] | –
COc1ccc(CNc2ncc(-c3ccc(Br)cc3)n2C)cc1OC | inconclusive [inhibitor, single point] | –
Cc1cc(C)c2nc(N(CCCN(C)C)C(=O)c3ccc4c(c3)OCCO4)sc2c1 | inconclusive [inhibitor, partial curve] | –
CNC(=O)NC(=O)C(C)OC(=O)c1oc2ccccc2c1CSc1ccc(Cl)cc1 (centres undefined) | inconclusive [inhibitor, full curve, poor fit] | –
COc1cc(C)c(S(=O)(=O)Nc2ccc(CC(=O)O)cc2)cc1C | inconclusive [inhibitor, single point] | –
CCc1ccc(NC(=O)CN2CCN(c3ccc(OC)cc3)CC2)cc1 | inactive | –

Compound | Potency | activity change, negative = inhibition
COC(=O)c1ccccc1NC(=O)c1ccco1 | inactive | –
CCN(CC)S(=O)(=O)c1cccc(NC(=O)COC(=O)c2n[nH]c(=O)c3ccccc23)c1 | inactive | –
CCOC(=O)C1(C)CCCN1C(=O)c1ccc(Cl)nc1 (centres undefined) | inactive | –
COc1ccc(Cn2c(SCc3cc(C)ccc3C)nc3cc(OC)c(OC)cc3c2=N)cc1 | inactive | –
CCOC(=O)c1cnn(-c2ccc(Cl)cc2)c1C1CCN(C(=O)OC(C)(C)C)CC1 | inconclusive [inhibitor, partial curve] | –
COc1ccc(CN(C)C(=O)c2ccc(COc3ccccc3)cc2)c(OC)c1 | inconclusive [inhibitor, single point] | –
CCCCn1nnnc1C(c1ccccc1)N1CCN(c2ccc(OC)cc2)CC1 (centres undefined) | inconclusive [inhibitor, partial curve] | –
O=[N+]([O-])c1ccc(-c2ccc(C=Nc3cccc4ccccc34)o2)cc1 | inconclusive [inhibitor, partial curve] | –
Clc1cccc(-c2nc3c4ccccc4ccn3c2Cc2ccsc2)c1 | inactive | –
Cc1cccc(NC(=O)c2ccc(N(C)C3CCCCC3)c([N+](=O)[O-])c2)n1 | inconclusive [inhibitor, partial curve] | –
CCn1c(SCC(=O)Nc2ccccc2)nc2c1c(=O)n(C)c(=O)n2C | inactive | –
CCCCNC(=O)c1c(N)n(CCCOC)c2nc3ccccc3nc12 | inactive | –
COCCn1c(C)cc(C(=O)COC(=O)/C=C/c2cccc(OC)c2)c1C | inconclusive [inhibitor, partial curve] | –
CCc1nnc(N/N=C/c2ccc(N3CCC(C)CC3)c([N+](=O)[O-])c2)n1N | inconclusive [inhibitor, partial curve] | –
CCCNC(=S)NC1CCCC1 | inconclusive [inhibitor, single point] | –
CCOc1ccc(Cl)cc1S(=O)(=O)NCc1cccnc1 | inconclusive [inhibitor, partial curve] | –
COc1cc(=O)n(C)c2c(OCC3OC(C)(C)OC3(C)C)cccc12 (centres undefined) | inactive | –
CS(=O)(=O)N1CCC(C(=O)Nc2cc(Cl)ccc2Cl)CC1 | inactive | –
O=C(CCCN1C(=O)c2cccc3cccc(c23)C1=O)N1CCN(c2ccccc2)CC1 | inconclusive [inhibitor, single point] | –
Cc1ccc(CNC(=O)COc2ccccc2-c2ccccc2)cc1 | – | inactive: -7.95% [at 2.32 µM]
COC(=O)[C@@]12C[C@@H](CC(=O)N3CCC(c4ccccc4)CC3)C(=O)N(Cc3ccc4c(c3)OCO4)C1=CCC(C)(C)C2 | inconclusive [inhibitor, partial curve] | –
O=[N+]([O-])c1cccc(N/N=C/c2ccc(N3CCOCC3)cc2)c1 | inconclusive [inhibitor, partial curve] | –
Cc1cc(C)c2c(n1)nn1c(NCCOCCO)cc(C)nc21 | inconclusive [inhibitor, full curve, poor fit] | –

Compound | Potency | activity change, negative = inhibition
COc1ccccc1NC(=O)CCc1nc(-c2ccccc2F)no1 | inactive | –
CN(C)c1cc2c(c(N(C)C)c1)C(=O)c1ccccc1C2=O | active: 17.8 µM | –
CCC(C)NCCCCOc1ccc(Br)cc1 (centres undefined) | inconclusive [inhibitor, partial curve] | –
COc1ccc(-n2c(-c3ccc(F)cc3)cnc2SCC(=O)NCc2ccco2)cc1 | inconclusive [inhibitor, partial curve] | –
Cc1cc(C[n+]2ncsc2N)c2ncccc2c1 | inactive | –
C[C@]12c3[nH]c4cc(-c5ccco5)ccc4c3CCN1C(=O)[C@@H](CC(=O)NCC13CC4CC(CC(C4)C1)C3)C[C@@H]2C(=O)N1CCOCC1 | inconclusive [inhibitor, single point] | –
Cc1cc2ccccn2c1C(=S)NC(=O)c1ccccc1 | inconclusive [inhibitor, single point] | –
CCOC(=O)c1cccc(NC(=O)CSc2nnc(-c3ccoc3C)n2CCOC)c1 | inactive | –
COc1cc2c(cc1OC)-c1cc(Nc3ccc(N(C)C)cc3)nc(=O)n1CC2 | inconclusive [inhibitor, single point] | –
COc1cc(/C=N/NC(=S)Nc2cccc(S(=O)(=O)N(C)C)c2)ccc1O | inactive | –
Cc1cc(C(=O)N/N=C/c2cc([N+](=O)[O-])ccc2O)c2ccccc2n1 | inconclusive [inhibitor, single point] | –
CCOC(=O)C1CCCN(c2ccc(NC(=O)c3snc4c(=O)[nH]c(C)nc34)cc2)C1 (centres undefined) | inactive | –
CCc1ccc2c(c1)C(=O)c1ccccc1C2=O | inconclusive [inhibitor, single point] | –
Cc1cc([N+](=O)[O-])cc(/C=N/n2c(C)nc3ccccc3c2=O)c1O | inconclusive [inhibitor, partial curve] | –
NC(=O)C1CCCN(CC(O)COCc2ccc(Cl)cc2)C1 (centres undefined) | inconclusive [inhibitor, partial curve] | –
S=C(c1ccc(-c2ccccc2Cl)o1)N1CCCCC1 | inconclusive [inhibitor, partial curve] | –
O=C(c1ccccc1)c1ccc(C(=O)N2CCN(c3ccccc3)CC2)cc1 | inconclusive [inhibitor, single point] | –
c1ccc(C2=Nc3c(ccc4ccccc34)C(c3ccncc3)=NN2)cc1 | inconclusive [inhibitor, full curve, poor fit] | –
O=C(NCCCn1ccnc1)c1ccc(Cl)c(S(=O)(=O)N2CCOCC2)c1 | inactive | –
CC(C)CCC(CCN1CCOCC1)c1ccc2c(c1)OCO2 (centres undefined) | inconclusive [inhibitor, partial curve] | –
O=C(N/N=C/c1cc(Br)c(Br)o1)C(O)c1ccccc1 (centres undefined) | inactive | –
CC(=O)/C(=N/Nc1ccc(Br)cc1)N1CCCc2ccccc21 | inconclusive [inhibitor, partial curve] | –
O=[N+]([O-])c1ccc(Nc2nc(NC3CCCCC3)nc(N3CCCC3)n2)cc1 | inconclusive [inhibitor, partial curve] | –
